From patent US12296006B2, “Anti-LY6H antibodies and antibody drug conjugates” (Bluefin BioMedicine, Inc., priority 2017, dated 2025)

Assays:
[1] = system: H446; assay: Anti-Ly6H antibodies binding to endogenous cell lines by flow cytometry: H446; parameters: species or system human; key: (−): No binding; (+): Weak binding; (++): Moderate binding; (+++): Strong binding; (++++): Very strong binding; conditions: primary antibodies 1 ug/ml, live cells on ice 30 minutes
Method: (§1) Staining for flow cytometry was performed in 1× cold PBS with 0.5% BSA. Primary antibodies (1 ug/ml) were incubated with live cells on ice for 30 minutes, after a brief wash, cells were incubated with Alexa Fluro® 488-conjugated anti-human IgG secondary antibody @1:1000 (709-546-149, Jackson ImmunoResearch). Acquisition of the data was performed on a MACSQuant© Flow Cytometers (Miltenyi Biotec) and analyzed with FlowJo software.
(§2) Fully human antibodies against LY6H were generated by hybridoma procedures. Briefly, H2L2 mice were immunized with either recombinant human Ly6H-ECD or BaF3 cells over-expressing LY6H and boosted with rabbit splenocytes expressing full length human LY6H or with ECD of LY6H recombinant protein. Splenocytes were fused with the mouse myeloma cell line X63-Ag8.653. Clones from H2L2 mice were identified by immunofluorescence (IF) based high content screening (HCS) on 293 cells overexpressing hLY6H, ratLy6H, and parental 293 cells not expressing LY6H, as well as endogenous small cell lung cancer (SCLC) cell line, H446. […] 270 hits were cryopreserved and stored in liquid nitrogen. Approximately 100 clones were selected for molecular cloning. Based on unique CDR3 sequences from the heavy chain variable domain, 10 antibodies from 8 families were chosen and confirmed by flow cytometry (MACSQuant® miltenybiotec.com) on the following cell lines. […]

[2] = system: EOL1; assay: Anti-Ly6H antibodies binding to endogenous cell lines by flow cytometry: EOL1; parameters: species or system human; key: (−): No binding; (+): Weak binding; (++): Moderate binding; (+++): Strong binding; (++++): Very strong binding; conditions: primary antibodies 1 ug/ml, live cells on ice 30 minutes
Method: as §1, §2

B1: 23F3_19B2: human anti-LY6H antibody, VH SEQ ID NO: 17, VL SEQ ID NO: 20 (antibody, V domains shown)
VH: QVQLQESGPGLVKPSGTLSLTCAVSGGSISSSNWWSWVRQPPGKGLEWIGEIYHSGSTNYNPSLKSRVTISVDKSKNQFSLKLSSVTAADTAVYYCARVDILTGGNFDYWGQGTLVTVSS
VL: [about 100 residues not given here]
binding by flow cytometry, H446 [1]: (++++) | binding by flow cytometry, EOL1 [2]: (−)
